Measured values: PMC4336329 (PLoS ONE, 2015)
Hit rate of the full screen: of about 310,000 compounds, about 14,000 (4.5%) showed an effect of 50% or more. Effects have a minus sign here. The list shows a part of the results.

What follows are molecules tested against human ether-à-go-go-related gene (hERG) potassium channel (human, UniProt Q12809) (assay: primary screen, population patch clamp on CHO cells stably expressing hERG).
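Note: peak tail current of the secondary pulse compared with the same well before compound.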

Sequence of human ether-à-go-go-related gene (hERG) potassium channel (Q12809 whole entry, looked up): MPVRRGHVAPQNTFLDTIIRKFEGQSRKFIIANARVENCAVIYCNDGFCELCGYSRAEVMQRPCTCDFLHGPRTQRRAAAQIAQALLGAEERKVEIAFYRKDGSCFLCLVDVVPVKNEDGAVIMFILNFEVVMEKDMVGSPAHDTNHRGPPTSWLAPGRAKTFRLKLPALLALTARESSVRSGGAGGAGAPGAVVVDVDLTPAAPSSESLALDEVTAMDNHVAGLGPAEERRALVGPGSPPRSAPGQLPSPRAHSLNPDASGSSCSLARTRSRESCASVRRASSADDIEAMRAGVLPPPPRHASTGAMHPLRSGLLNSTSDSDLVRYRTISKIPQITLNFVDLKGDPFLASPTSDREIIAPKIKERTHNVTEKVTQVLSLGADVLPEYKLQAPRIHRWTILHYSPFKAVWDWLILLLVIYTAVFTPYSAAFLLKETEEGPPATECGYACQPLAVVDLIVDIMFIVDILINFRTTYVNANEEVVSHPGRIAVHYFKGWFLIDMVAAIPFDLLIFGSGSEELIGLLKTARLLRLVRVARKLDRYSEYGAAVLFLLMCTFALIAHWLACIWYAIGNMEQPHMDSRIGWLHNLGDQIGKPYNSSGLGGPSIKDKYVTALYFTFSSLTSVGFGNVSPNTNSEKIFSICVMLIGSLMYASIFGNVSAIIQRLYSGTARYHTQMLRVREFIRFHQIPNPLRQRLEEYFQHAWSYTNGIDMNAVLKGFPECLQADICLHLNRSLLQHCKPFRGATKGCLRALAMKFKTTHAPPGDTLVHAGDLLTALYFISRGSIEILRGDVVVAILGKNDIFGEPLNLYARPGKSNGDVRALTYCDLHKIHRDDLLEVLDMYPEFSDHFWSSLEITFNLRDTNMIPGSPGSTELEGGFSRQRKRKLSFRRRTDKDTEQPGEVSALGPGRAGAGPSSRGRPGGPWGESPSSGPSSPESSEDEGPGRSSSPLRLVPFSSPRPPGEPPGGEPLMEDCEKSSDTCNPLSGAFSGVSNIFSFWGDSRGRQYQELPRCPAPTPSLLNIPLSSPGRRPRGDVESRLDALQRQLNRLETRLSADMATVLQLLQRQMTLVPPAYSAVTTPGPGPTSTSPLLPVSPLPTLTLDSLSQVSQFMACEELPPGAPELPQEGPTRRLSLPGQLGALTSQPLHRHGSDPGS

SMILES | hERG current change (%, negative = inhibition) at 10uM
COc1cc(/C=N/O)ccc1Oc1cnccn1 | 13.5%
CCc1nnc(NC(=O)CCC(=O)N2CCN(Cc3cc(Cl)ccc3OC)CC2)s1 | -3.48%
O=S1(=O)CCN2C(=N1)SC1=C2CCN(Cc2ccccc2)C1 | 17.2%
CCCc1nn2c(=O)cc(CSCC(=O)Nc3cccc(C)c3)nc2s1 | 0.26%
CC1CC(C)CN(C(=O)c2cn(C)c3ccc(S(=O)(=O)N(C)C)cc3c2=O)C1 (stereo not drawn) | -3.09%
Cc1ccc(C)c(S(=O)(=O)N2CCN(c3nc(CN4CCOCC4)nc4sc(C)c(C)c34)CC2)c1 | -57.1%
COc1ccccc1-c1c(C(F)(F)F)oc2cc(OC(=O)c3ccc([N+](=O)[O-])cc3)ccc2c1=O | 11.9%
COc1ccc(C2=NOC(C(=O)Nc3cc(Br)ccc3O)C2)cc1OC (stereo not drawn) | 16.3%
O=C(NCCc1ccccc1)C(=O)c1c[nH]c2ccccc12 | 5.34%
COc1cccc2cc(C(=O)C3=C(O)C(=O)N(CCN(C)C)C3c3ccc(Cl)cc3)oc12 (stereo not drawn) | 4.47%
Cn1c(C=O)c(-c2ccc3c(c2)OCCO3)c2ccccc21 | 1.03%
CCC(=Nc1ccc(N)cc1)C1=C(O)C(C(=O)OC)C(C)(C)CC1=O (stereo not drawn) | 27.9%
CC(NC(=O)C1CCN(S(=O)(=O)c2cnc[nH]2)CC1)c1ccccc1 (stereo not drawn) | 3.81%
Cc1cc(NC(=O)CSc2nnc(NC(=O)C3CC(=O)N(c4ccccc4)C3)s2)no1 (stereo not drawn) | 9.58%
CCC(=O)N1CCc2cc(S(=O)(=O)N3CCCC3)ccc21 | 15.7%
COc1ccc(NC(=S)NCC2CCCO2)c(C)c1 (stereo not drawn) | 2.1%
Cc1ccc(C)c(NC(=O)Cn2nnc(C(=O)Nc3c(C)cccc3C)c2N)c1 | -9.97%
COc1ccc(-n2cnc3sc4c(c3c2=O)CCCC4)cc1 | 11.2%
CCOc1ccc(S(=O)(=O)N(C(=O)c2ccco2)c2cc3sc(=O)oc3c3ccccc23)cc1 | 19.6%

SMILES | hERG current change (%, negative = inhibition) at 10uM
O=C(Nc1cc(Br)ccc1O)c1cc(-c2cccs2)on1 | -29.1%
Clc1cccc(Cl)c1CSc1nnc(/C=C/c2ccccc2)o1 | 8.1%
Cc1ccc(NC(=O)C2CCN(C(=O)N3CCOc4ccccc43)CC2)cc1 | -4.24%
Cc1ccc(CSc2nnc(-c3ccc4c(c3)OCO4)o2)cc1 | 8.8%
Cc1ccc([N+](=O)[O-])cc1S(=O)(=O)Nc1cccc(-c2ccc(N3CCCC3)nn2)c1 | -12.7%
Cc1ccc(NC(=O)Nn2cnnc2)c(C)c1 | 1.62%
CC(O)CNC(=O)c1ccc(-c2nn(C)c(=O)c3ccccc23)cc1 (stereo not drawn) | -0.479%
Cc1cc(C)n(-c2nc3ccccc3nc2Nc2ccc(CC(=O)O)cc2)n1 | 7.13%
CCOC(=O)C1=C(C)C(c2ccccc2OC)NC(=O)N1 (stereo not drawn) | 16.9%
COc1ccc(NC(=S)Nc2ncccc2C)cc1OC | 3.58%
CCCCNC(=O)Nc1cc(C(=O)OC)ccc1C | 7.36%
Cc1[nH]c2ccccc2c1C(=O)CNc1nccs1 | -3.59%
Cc1ccc(CC(=O)Nc2ccc(F)c([N+](=O)[O-])c2)cc1C | -3.41%
CCc1c(C)nc(SCC(=O)N2CCCCC2)[nH]c1=O | 3.18%
Cc1ccccc1C(=O)N[C@H](C(=O)OCC(=O)c1ccc[nH]1)C(C)C | -6.68%
Cc1ccccc1N1C(=O)[C@@H]2Cc3ccccc3CN2C1=O | -4.95%
CSC1=NC(C)(C)C=C(/C=C/c2ccc(Cl)cc2Cl)N1 | 18.1%
CC(Oc1ccc2ccc(=O)oc2c1)C(=O)NCCN1CCOCC1 (stereo not drawn) | 15.8%
COc1ccc(S(=O)(=O)N2CCC(C(=O)NCC3CCCO3)CC2)cc1Cl (stereo not drawn) | 9.38%

SMILES | hERG current change (%, negative = inhibition) at 10uM
CC(C)(CO)CNC(=O)c1ccc(OC2CCN(C(=O)C3CC3)CC2)cc1 | 0.279%
CCCC(C)NC(=O)COc1ccc(S(=O)(=O)c2ccc(OCC(=O)NC(C)CCC)cc2)cc1 (stereo not drawn) | 3.31%
CCCNC(=O)C1CC(=O)N(c2ccc(OCc3ccc(F)cc3)cc2)C1 (stereo not drawn) | 8.72%
CCC(C)NC(=O)N1c2ccccc2Sc2ccccc21 (stereo not drawn) | -4.45%
O=C(O)c1ccc2c(c1)C(=O)N(N1C(=O)c3ccccc3C1=O)C2=O | -4.21%
Cc1ccccc1NC(=O)c1cccc(C(=O)Nc2ccccc2C)c1 | 0.597%
CC(C)CCOc1ccc(C(=O)NCC(c2ccco2)N(C)C)cc1 (stereo not drawn) | 17.4%
O=C(CCC(=O)N1CCOc2ccc(Cl)cc21)N1CCC2(CC1)OCCO2 | -2.22%
CCCCc1ccc(NC(=S)N2CCN(c3ncccn3)CC2)cc1 | 6.94%
CC(C)(C)c1cc(C(=O)N/N=C/c2ccco2)n[nH]1 | 13.5%
COCc1ccc(CN2CCCC(C(=O)c3sccc3C)C2)o1 (stereo not drawn) | 5.56%
COc1cc(SC)ccc1C(=O)N1CCN(c2ccccc2)CC1 | -17.2%
Cc1ccc(C)c(Cn2cnc3c(cnn3C(C)(C)C)c2=O)c1 | 10.4%
CCCC1C2C(=O)N(c3ccc(OC)cc3)C(=O)C2ON1c1ccccc1 (stereo not drawn) | 11%
CCOc1ccc2nc(SCc3cccc(C)c3)nc(C)c2c1 | 4.91%
OCCN1CCN(C(=S)c2ccc(Cl)cc2)CC1 | -0.452%
CN(C)CCN(C(=O)c1ccc2c(c1)OCCO2)c1nc2ccc(Cl)cc2s1.Cl | -1.19%
CCOC(=O)C1=C(N)Oc2cc(C)[nH]c(=O)c2C1c1ccncc1 (stereo not drawn) | 11.9%
O=c1[nH]c(=S)[nH]c(O)c1N=Nc1ccc(S(=O)(=O)N2CCc3ccccc32)cc1 | 14.4%
